# The BET-seq Pho4 binding data (Le et al. 2018)
# This is one part of the list. Values were computed here from the reads of four pooled replicates and scatter widely.
# Target: T1, Pho4 (S. cerevisiae) (UniProt P07270)
# T1 sequence: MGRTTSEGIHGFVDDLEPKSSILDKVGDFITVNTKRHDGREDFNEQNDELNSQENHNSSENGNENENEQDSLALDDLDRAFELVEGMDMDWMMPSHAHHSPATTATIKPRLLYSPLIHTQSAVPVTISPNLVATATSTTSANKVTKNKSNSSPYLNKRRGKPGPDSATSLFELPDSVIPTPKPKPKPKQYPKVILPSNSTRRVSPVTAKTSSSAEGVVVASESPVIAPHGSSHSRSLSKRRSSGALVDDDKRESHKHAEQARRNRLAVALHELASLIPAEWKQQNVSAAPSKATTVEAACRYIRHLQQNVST
# Assay: relative binding free energy (BET-seq); higher = weaker binding
# Settings: reference: library average
row,Sequence,relative binding free energy [kcal/mol]
1,AGGGTCACGTGTGCGT,0.08
2,GTGTGCACGTGGAATG,0.11
3,GGTGGCACGTGGCACT,-0.16
4,GGAAACACGTGGGCGT,-0.02
5,TTGGGCACGTGGTAGC,-0.14
6,TGGTGCACGTGCCTTT,-0.13
7,GTGTTCACGTGGTCCG,0.19
8,CGGCTCACGTGGAGGT,0.18
9,GTTCGCACGTGTTTGA,0.04
10,ATTGACACGTGAGTAT,0.18
11,CTTGTCACGTGCGGTG,0.05
12,GGGTCCACGTGAGGAT,0.28
13,ATATGCACGTGGCGGA,-0.04
14,GGTAACACGTGTATGT,-0.04
15,ATTCTCACGTGATGTT,0.24
16,CGGGCCACGTGGGGAG,-0.16
17,TAAAACACGTGTGAGT,0.08
18,TGGGTCACGTGATAGC,0.15
19,TTTCTCACGTGGGGGG,0.19
20,GTGGACACGTGGAGTC,0.09
21,GAATGCACGTGTCTGG,0.01
22,GATCACACGTGGGGAG,0.12
23,AGGCTCACGTGTATGG,0.23

row,Sequence,relative binding free energy [kcal/mol]
1,GTTTTCACGTGAGACG,0.5
2,TATGGCACGTGTTAGT,-0.08
3,TGGAACACGTGCTTGA,0.11
4,GGATTCACGTGTCTTG,0.26
5,GGAGTCACGTGGTGCA,0.08
6,ATAGCCACGTGGGGGC,-0.28
7,AAGGCCACGTGGGTTG,-0.14
8,GAAGACACGTGGCGGT,0.02
9,CGGAGCACGTGGGGGA,-0.36
10,GCTTTCACGTGGTGCG,0.21
11,TGGGACACGTGAGTCG,0.36
12,CGGTGCACGTGTTAGG,-0.02
13,CGGGTCACGTGGTTAA,0.08
14,TAAGGCACGTGAGTCG,0.08
15,GAATTCACGTGTGTGA,0.29
16,GTCTGCACGTGTAGTT,0.08
17,TGGGGCACGTGGCAGG,-0.19
18,TGGTGCACGTGGTCTG,-0.13
19,TCTGGCACGTGGGAGT,-0.03
20,TTAGACACGTGGCGTA,-0.09
21,GGTGTCACGTGTCAGG,0.12
22,ATTTTCACGTGGTGCG,0.19
23,TCAAGCACGTGGGGAT,-0.08

row,Sequence,relative binding free energy [kcal/mol]
1,AAAGTCACGTGTTAGA,0.21
2,AATGACACGTGAAGGG,0.28
3,TGGGGCACGTGGGAAG,-0.15
4,AAAGACACGTGTTATG,0.19
5,TTGGGCACGTGATATC,-0.08
6,TGATGCACGTGCGGGT,-0.04
7,TTGGTCACGTGTCGTC,-0.01
8,AGCTGCACGTGTGAAG,0.01
9,GTTTGCACGTGGGGGC,-0.03
10,GGTTACACGTGGAAAG,0.32
11,CGAAGCACGTGTTTAG,0.1
12,AATGTCACGTGCAGGG,0
13,AAGTGCACGTGAAGTG,0.12
14,AAGTTCACGTGTTCTT,0.16
15,AGGTACACGTGGGGTA,-0.14
16,TGTGTCACGTGCTGGA,0.05
17,AGGAGCACGTGTTTTG,-0.06
18,TGTGACACGTGGGGCG,-0.18
19,ATTGGCACGTGATGTA,0.03
20,AGGCTCACGTGAATGG,0.35
21,GCCTTCACGTGTTGGG,0.24
22,TGGGTCACGTGGCTTA,0.17
23,CAGTACACGTGAGGGA,0.47

row,Sequence,relative binding free energy [kcal/mol]
1,ATTATCACGTGGAGTT,0.2
2,TGCGGCACGTGAGATG,0.18
3,TGGCACACGTGGGAGC,0.04
4,AATGTCACGTGGTAGT,0.1
5,TCTTGCACGTGTTTTG,0.05
6,TGGGCCACGTGTAATT,0.26
7,TGGTACACGTGAGCTG,0.29
8,GATAACACGTGTGTGA,0.08
9,GTTTGCACGTGAAGAA,0.2
10,AGTTTCACGTGCAGTA,0.16
11,GGAGACACGTGTGCTG,0.02
12,GGCGTCACGTGTGTTT,0.13
13,GTGACCACGTGTGGGA,0.18
14,AGTGGCACGTGGAAGT,-0.12
15,GCGTTCACGTGTTGGT,0.34
16,GTCGGCACGTGTGGCG,0.07
17,AGATTCACGTGCGTTT,0.26
18,ATATCCACGTGGAGTG,-0.03
19,TAACTCACGTGGGTTT,-0.04
20,GGCGTCACGTGAGGAA,0.33
21,CGTATCACGTGAGGGA,0.18
22,TTGGGCACGTGTTCGC,-0.09
23,TCAATCACGTGGGTTG,0.05

row,Sequence,relative binding free energy [kcal/mol]
1,AATTGCACGTGTCAGG,0.07
2,ATATACACGTGCTTGG,-0.01
3,CTTGGCACGTGATTGG,0.04
4,CTTGCCACGTGGGCGG,-0.27
5,ATGATCACGTGGTCAT,0.11
6,GGTGTCACGTGTGGGG,0.16
7,GTTGTCACGTGGGCAA,0.04
8,ATTGACACGTGTATAT,0
9,TGTAGCACGTGGTCCG,-0.08
10,TTTCGCACGTGTGTAA,-0.09
11,GTAAACACGTGGTGCG,-0.07
12,GTATGCACGTGTATAT,0.1
13,TCATTCACGTGTTTGC,0.2
14,AAGAACACGTGAGGTG,0.27
15,GGGAACACGTGTTAAG,0.15
16,TGCCGCACGTGGGGGT,-0.29
17,TTCAGCACGTGTAAGT,-0.08
18,CATAGCACGTGGTTTG,-0.12
19,ATATGCACGTGTGGTA,0.04
20,ATCGACACGTGGTTGG,-0.08
21,TTGTGCACGTGCGTCG,-0.05
22,TCTGGCACGTGTGTAG,-0.04
23,CTTTTCACGTGAGTCT,0.43
